# In PubChem BioAssay AID1030 (National Center for Advancing Translational Sciences (NCATS), 2008):
# The campaign covered roughly 220,000 compounds. About 16,000 (7.3%) were called active. The inconclusive results got no clear call from the source; some entries with a clear call stand among them for comparison. The call rests on the fitted dose curve; in most records, active means well fitted inhibition curve with a large enough effect (not every such curve was filed as active); inconclusive means small, poorly fitted or top-dose-only effect, or another doubt; inactive means no such curve, though single readings can be large or run the other way. No potency is given beside an inconclusive call; the fits are too rough. A structure can be active in one record and inactive in another.
# Target: Aldehyde dehydrogenase 1A1 (Homo sapiens) (UniProt P00352)
# Test: qHTS Assay for Inhibitors of Aldehyde Dehydrogenase 1 (ALDH1A1)
# Conditions: Purified ALDH1A1, NADH fluorescence, propionaldehyde substrate; series mostly up to 75.3 µM
# Potency means the concentration at half of the fitted maximal effect; tags describe the fitted curve by direction and shape.
# UniProt P00352, sequence (P00352 whole entry, looked up): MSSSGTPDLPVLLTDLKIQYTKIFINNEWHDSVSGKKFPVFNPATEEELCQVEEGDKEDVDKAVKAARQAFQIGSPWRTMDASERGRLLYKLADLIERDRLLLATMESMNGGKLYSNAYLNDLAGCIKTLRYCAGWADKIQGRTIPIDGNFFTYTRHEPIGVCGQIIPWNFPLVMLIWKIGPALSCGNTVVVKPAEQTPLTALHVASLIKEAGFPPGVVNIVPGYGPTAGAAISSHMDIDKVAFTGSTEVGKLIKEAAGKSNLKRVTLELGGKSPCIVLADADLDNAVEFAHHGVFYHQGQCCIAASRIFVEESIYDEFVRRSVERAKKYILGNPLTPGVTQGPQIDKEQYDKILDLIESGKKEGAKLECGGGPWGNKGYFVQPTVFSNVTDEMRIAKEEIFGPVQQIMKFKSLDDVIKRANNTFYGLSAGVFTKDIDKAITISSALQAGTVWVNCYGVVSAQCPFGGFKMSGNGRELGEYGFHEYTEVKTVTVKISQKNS
row,SMILES,Potency
1,CC1CCCC/C1=N/Nc1ccc([N+](=O)[O-])cc1[N+](=O)[O-] (stereo unspecified),"inconclusive [inhibitor, partial curve]"
2,Cc1ccn2cc(-c3ccc(S(=O)(=O)N4CCOCC4)cc3)nc2c1,"inconclusive [inhibitor, full curve]"
3,COc1ccc(C2Nc3ccccc3C(=O)N2c2ccc(C)cc2)cc1Cn1cc([N+](=O)[O-])cn1 (stereo unspecified),active: 28.2 µM
4,c1ccc(SCCOCCn2cncn2)cc1,active: 28.2 µM
5,CCOC(=O)c1cc2c(C(F)(F)F)cc(-c3cccnc3)nc2o1,"inconclusive [inhibitor, single point]"
6,N#CCCn1cc(/C=N/NC(N)=S)c(-c2ccccc2)n1,"inconclusive [inhibitor, full curve]"
7,CCC(=O)N[C@@H]1CC(C(C)(C)NC(=O)CC)CC=C1C (stereo partly specified),inactive
8,COC(=O)c1cn(C)c2ccc(S(=O)(=O)N3CC(C)CC(C)C3)cc2c1=O (stereo unspecified),"inconclusive [inhibitor, partial curve]"
9,COc1cccc(NC(=O)c2ccc(NCCCN3CCC(C)CC3)c([N+](=O)[O-])c2)c1,"inconclusive [inhibitor, single point]"
10,CC(C)(C)CC(C)(C)N=C1NS(=O)(=O)c2cc([N+](=O)[O-])ccc21,"inconclusive [inhibitor, single point]"
11,CCOC(=O)c1c(-c2ccc(C)cc2)csc1NC(=O)C1CCCO1 (stereo unspecified),"inconclusive [inhibitor, partial curve]"
12,COc1ccc(NC(=O)CN2c3cccc4cccc(c34)S2(=O)=O)c(OC)c1,"inconclusive [inhibitor, partial curve]"
13,Cc1ccc(C(=O)NNC(=S)Nc2cccc(Cl)c2Cl)cc1[N+](=O)[O-],active: 2.82 µM
14,CCN(CC)C(=O)CN(c1cccc(OC)c1)S(=O)(=O)c1ccc(C)cc1,"inconclusive [inhibitor, single point]"
15,CCOC(=O)c1ccc(Oc2c(C)oc3c(CN4CCN(C)CC4)c(O)ccc3c2=O)cc1,"inconclusive [inhibitor, partial curve]"
16,Cc1ccc(-n2c(SCc3ccc([N+](=O)[O-])cc3)nc3ccccc3c2=O)cc1,"inconclusive [inhibitor, single point]"
17,NC(=O)COC(=O)c1ccc(-c2ccc(O)cc2)cc1,inactive
18,CCOC(=O)c1[nH]c2ccc(OC)cc2c1NS(=O)(=O)c1ccc(OC)cc1OC,"inconclusive [inhibitor, partial curve]"
19,Cc1nnc(SCc2ccc(F)cc2)s1,inactive
20,COc1cc2[nH]c(=O)c(C(=O)NCCCN3CCCCC3)c(O)c2cc1OC,"inconclusive [inhibitor, single point]"
21,O=c1c2c3nc4ccccc4nc3n(CC3CCCO3)c2ncn1CCc1ccccc1 (stereo unspecified),"inconclusive [inhibitor, partial curve]"
22,CC(C)(C)c1ccc(C(=O)NC(=S)NCC2CCCO2)cc1 (stereo unspecified),"inconclusive [inhibitor, single point]"
23,CN(C)S(=O)(=O)c1cccc(NC(=O)c2cc3c(=O)n4ccccc4nc3s2)c1,"inconclusive [inhibitor, full curve]"
24,CC(C)n1c(O)c(N=NC(=O)C2COc3ccccc3O2)c2ccccc21 (stereo unspecified),"inconclusive [inhibitor, single point]"

row,SMILES,Potency
1,CCOc1ccc2nc(N(CCN(CC)CC)C(=O)c3cccc([N+](=O)[O-])c3)sc2c1,inactive
2,COc1ccc(C(C(=O)NC2CCCCC2)N(CC2CCCO2)C(=O)C2COc3ccccc3O2)cc1OC (stereo unspecified),"inconclusive [inhibitor, single point]"
3,N#Cc1c(NC(=O)CCCN2C(=O)c3ccccc3C2=O)oc(-c2ccccc2)c1-c1ccccc1,"inconclusive [inhibitor, partial curve]"
4,O=C(NCc1ccccn1)c1cc2ccccc2oc1=O,"inconclusive [inhibitor, partial curve]"
5,O=C(C1=NN[C@@H]2C(=O)N(c3cccc(F)c3)C(=O)[C@H]12)c1cnccn1,active: 6.31 µM
6,COc1cccc(NC(=O)CS(=O)(=O)c2cn(CC(=O)N3CCOCC3)c3ccccc23)c1,"inconclusive [inhibitor, single point]"
7,O=C(CCc1nc2ccccc2s1)NCc1ccccc1F,"inconclusive [inhibitor, single point]"
8,CC(=O)c1c(C)nc(-c2ccc(OCC(=O)Nc3ccc(F)cc3)cc2)n1O,"inconclusive [inhibitor, single point]"
9,S=C(NC1CCCC1)NN1CCOCC1,inactive
10,O=C(CSc1ccc(F)cc1)N1CCN(S(=O)(=O)c2ccccc2)CC1,active: 2.82 µM
11,CCN(CC)S(=O)(=O)c1cccc(NC(=O)COC(=O)CCC(=O)c2cccs2)c1,"inconclusive [inhibitor, single point]"
12,CN(C)CCC1Sc2ccccc2Oc2ccccc21 (stereo unspecified),"inconclusive [inhibitor, partial curve]"
13,O=C1/C(=C/c2ccccc2[N+](=O)[O-])COc2ccccc21,"inconclusive [inhibitor, single point]"
14,Cc1ccc(OCC(=O)N/N=C/c2ccncc2)cc1C,inactive
15,CCN(CC)CCN(Cc1cc2cc3c(cc2[nH]c1=O)OCO3)C(=S)NCC1CCCO1 (stereo unspecified),"inconclusive [inhibitor, single point]"
16,CCOC(CNc1c([N+](=O)[O-])c(=O)n(C)c(=O)n1C)OCC,inactive
17,S=c1[nH]c(-c2ccccc2)cn1/N=C/c1ccc(Br)cc1,inactive
18,COC(=O)c1ccc(COC(=O)c2ccc(-n3cnnn3)cc2)o1,active: 20 µM
19,COc1cc2nc(CN(C)CC(=O)Nc3ccc(N4CCOCC4)cc3)[nH]c(=O)c2cc1OC,active: 28.2 µM
20,COc1cccc(-n2cc3c(=O)n(C)c(=O)n(C)c3c2)c1,"inconclusive [inhibitor, single point]"
21,CCOC(=O)c1nnn(-c2nonc2N)c1COc1ccc(F)cc1,"inconclusive [inhibitor, partial curve]"
22,N#CC1=C2C=Cc3ccccc3N2CCCC1=O,"inconclusive [inhibitor, single point]"
23,O=C(NC1CCCC1)C(c1ccc(F)cc1)N(Cc1ccccc1Cl)C(=O)CCl (stereo unspecified),inactive
24,CC(/C=C1\SC(=S)N(CCCC(=O)Nc2ccc(C(=O)O)c(O)c2)C1=O)=C\c1ccccc1,active: 6.31 µM

row,SMILES,Potency
1,CCOc1ccc(N2C(=O)CS/C2=C(\C(Cl)=C(Cl)Cl)[N+](=O)[O-])cc1,active: 22.4 µM
2,CC1CC(C)CN(C(=O)/C=C/c2ccc([N+](=O)[O-])s2)C1 (stereo unspecified),active: 2.82 µM
3,Cc1c2ccccc2c(CSC(=N)N)c2ccccc12,active: 14.1 µM
4,COC(=O)C(Cc1cncn1COCc1ccccc1)NC(=O)OC(C)(C)C (stereo unspecified),active: 20 µM
5,Cc1ccc2c(c1)nnn2C1CCN(S(=O)(=O)c2ccc(C(=O)O)cc2)CC1,inactive
6,C[C@H]1/C=C\CC(=O)NCc2cccc(c2)CNC(=O)N[C@H]1c1ccccc1,inactive
7,O=C(Oc1c(Br)cc(C(=S)N2CCOCC2)cc1Br)c1ccc(Cl)cc1,active: 6.31 µM
8,CC1=Nc2nc(N3CCCCC3)c(C#N)c3c4c(nc(c23)N1)N(c1ccc(C(C)C)cc1)C(=O)C4,"inconclusive [inhibitor, partial curve]"
9,CN(C)c1nc(N(C)C)n(C(=O)c2cccs2)n1,inactive
10,Nc1nc2n(n1)C1(CCCCC1)C1=C(CCCC1)N2,"inconclusive [inhibitor, single point]"
11,Cc1cc(=O)[nH]c(SCC(=O)Nc2nnc(SCc3ccccc3)s2)n1,"inconclusive [inhibitor, single point]"
12,COc1cc(C(=O)Oc2ccccc2)ccc1OCc1c(C)noc1C,inactive
13,CCSC1=N/C(=C\c2ccc(C)s2)C(=O)S1,"inconclusive [inhibitor, partial curve, poor fit]"
14,O=C(CSc1ccc(Cl)cc1)Nc1nnc(-c2cccc([N+](=O)[O-])c2)s1,active: 2.51 µM
15,Cc1ccc(-n2nnnc2-c2cccc(C)c2)cc1,inactive
16,COc1ccc2c(C(=O)CN3CCN(CCO)CC3)c[nH]c2c1,"inconclusive [inhibitor, single point]"
17,Cc1cc(C(=O)OCC(=O)Nc2cc(S(=O)(=O)N(C)C)ccc2C)c2ccccc2n1,"inconclusive [inhibitor, single point]"
18,CN1c2ccsc2/C(=N/Nc2ccc(F)cc2)CS1(=O)=O,inactive
19,Cc1ccc(S(=O)(=O)Oc2ccc(/C=C(/NC(=O)c3ccccc3)C(=O)NCCCC(=O)O)cc2)cc1,active: 2.82 µM
20,CN(C)S(=O)(=O)c1cccc(N=c2scc(-c3ccc4c(c3)NC(=O)CO4)n2CC2CCCO2)c1 (stereo unspecified),"inconclusive [inhibitor, single point]"
21,CCOc1ccc(NC(=O)CSc2nc(N)c(-c3ccccc3)c(=O)[nH]2)cc1,"inconclusive [inhibitor, single point]"
22,COc1ccc(CCN2C(=O)CS/C2=N/NC(=O)c2ccccc2F)cc1OC,inactive
23,CCc1ccc2oc(-c3cccc(N)c3)nc2c1,"inconclusive [inhibitor, partial curve]"
